Here are results for 32 compounds from the supplement of paper PMC8007513.

For the assay, the system named is Trichoderma virens ATCC 9645. Description: growth yield (OD600) relative to untreated control; higher = less growth inhibition. As to conditions: compound concentration: 100 uM. The essentials: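 For each 96-well plate, 100 μl aliquots were prepared with Trichoderma virens ATCC 9645 spores suspended at 15,000 spores ml^−1 in potato dextrose broth. The spores had been harvested from potato dextrose agar plates after 7 days. Library compounds were present at 100 μM final, some wells also receiving a biocide at 200 ng ml^−1, and plates were grown at 30 °C with OD600 read on a BioTek EL800 at 40 h and 72 h. Reported growth, relative to the control lacking both agents, is the mean of duplicate screens.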

SMILES strings stand for the structures. Where a name gives a salt, the structure may show the parent alone. ± gives the standard error. Screen size: about 1,300 compounds; about 75 (6%) showed an effect of 50% or more. The list shows a part of the results.

For the compound `Cc1c(N(C)C)c(=O)n(-c2ccccc2)n1C` [Amidopyrine], the growth yield runs as follows: (40 h) 103 ± 2.7%; (72 h) 102.6 ± 0.63%.
For the compound `CCN(CC)CCNC(=O)c1cc(Cl)c(N)cc1OC` [Metoclopramide monohydrochloride], the growth yield reads like this: (40 h) 102 ± 0.95%; (72 h) 103 ± 2.9%.
Turning to `CC(C)(CO)C(O)C(=O)NCCCO` (centres undefined) [Panthenol (D)], the growth yield (40 h) was determined as 100 ± 4.5% and the growth yield (72 h) was determined as 98.1 ± 3%.
Taken in the same sequence, the figures for `CN(C)C/C=C(/c1ccc(Br)cc1)c1cccnc1` [Zimelidine dihydrochloride monohydrate] were 97.8 ± 1.9% and 101 ± 4.1%.
For the compound `CCOc1ccc2ccccc2c1C(=O)N[C@@H]1C(=O)N2[C@@H]1SC(C)(C)[C@@H]2C(=O)O` [Nafcillin sodium salt monohydrate], the growth yield was determined as 90.4 ± 2.1% (40 h) and 91.6 ± 1.6% (72 h).
Consider `Cn1cnc2c1c(=O)[nH]c(=O)n2C` [Theobromine], for which the growth yield is 98 ± 3% (40 h) and 94.08 ± 0.94% (72 h).
Taken in the same sequence, the figures for `O=C(N[C@H](CO)[C@H](O)c1ccc([N+](=O)[O-])cc1)C(Cl)Cl` [Chloramphenicol] were 103 ± 1.3% and 99.11 ± 0.1%.
In the case of `CCC[C@@H]1C[C@@H](C(=O)N[C@@H]([C@H]2O[C@H](SC)[C@H](O)[C@@H](O)[C@H]2O)[C@H](C)Cl)N(C)C1` [Clindamycin hydrochloride], the growth yield is, setting by setting: (40 h) 98.5 ± 4.5%; (72 h) 100 ± 4.2%.
With `C=C1/C(=C\C=C2/CCC[C@]3(C)[C@@H]([C@H](C)CCCC(C)C)CC[C@@H]23)C[C@@H](O)C[C@@H]1O` [Alfacalcidol], the growth yield is 103 ± 1.4% (40 h) and 103 ± 2.3% (72 h).
Turning to `Cc1ccc2c(c1)c1c3n2CCNC3CCC1` (centres undefined) [Pirlindole mesylate], the growth yield is, setting by setting: (40 h) 101 ± 1.1%; (72 h) 104 ± 2.5%.
Compound `CN(C)CCC=C1c2ccccc2COc2ccccc21` [Doxepin hydrochloride] had a growth yield (40 h) of 96.58 ± 0.95% and a growth yield (72 h) of 96.7 ± 1.7%.
The corresponding values for `CC(C)[N+](C)(CCOC(=O)C1c2ccccc2Oc2ccccc21)C(C)C` [Propantheline bromide] are 99.9 ± 1.1% and 100 ± 0.63%.
For `Nc1ccccc1S(N)(=O)=O` [2-Aminobenzenesulfonamide], the growth yield (40 h) is 93.7 ± 1.6% and the growth yield (72 h) amounted to 94.39 ± 0.63%.
In turn, `COc1ccccc1Oc1c(NS(=O)(=O)c2ccc(C(C)(C)C)cc2)nc(-c2ncccn2)nc1OCCO` [Bosentan] gave a growth yield (40 h) of 91.7 ± 5.9% and a growth yield (72 h) of 89.7 ± 9.5%.
Taken in the same sequence, the figures for `NS(=O)(=O)c1cc2c(cc1Cl)NC(C(Cl)Cl)NS2(=O)=O` (centres undefined) [Trichlormethiazide] were 95.14 ± 0.79% and 94.1 ± 1.1%.
As for `CN[C@@H]1[C@H](O)[C@H](NC)[C@H]2O[C@@]3(O)C(=O)C[C@@H](C)O[C@H]3O[C@@H]2[C@H]1O` [Spectinomycin dihydrochloride], the growth yield runs as follows: (40 h) 103 ± 1.8%; (72 h) 100.8 ± 0.52%.
Taken in the same sequence, the figures for `N[C@@H](C(=O)N[C@@H]1C(=O)N2C(C(=O)O)=C(Cl)CC[C@H]12)c1ccccc1` [Loracarbef] were 97.21 ± 0.95% and 98.5 ± 1.6%.
The corresponding values for `Cc1onc(-c2ccccc2Cl)c1C(=O)N[C@@H]1C(=O)N2[C@@H]1SC(C)(C)[C@@H]2C(=O)O` [Cloxacillin sodium salt] are 101 ± 1.4% and 105 ± 2.8%.
The corresponding values for `C#Cc1cccc(Nc2ncnc3cc(OCCOC)c(OCCOC)cc23)c1` [Erlotinib] are 108% and 105%.
Turning to `CC(C)Nc1cccnc1N1CCN(C(=O)c2cc3cc(NS(C)(=O)=O)ccc3[nH]2)CC1` [Delavirdine], the growth yield (40 h) worked out at 100.4 ± 0.95% and the growth yield (72 h) came out at 98.06 ± 0.94%.
For `CN[C@@H]1[C@@H](O[C@H]2O[C@H](CO)[C@@H](N)[C@H](O)[C@H]2O)OC2C[C@@H](N)[C@@H](O[C@H]3[C@H](O)[C@@H](O)[C@H](N)C[C@@H]3N)OC2[C@@H]1O` (some centres undefined) [Apramycin], the growth yield is, setting by setting: (40 h) 103 ± 2.2%; (72 h) 100.2 ± 0.52%.
As for `Cc1c(-c2ccccc2)oc2c(C(=O)OCCN3CCCCC3)cccc2c1=O` [Flavoxate hydrochloride], the growth yield (40 h) was determined as 103.7 ± 0.79% and the growth yield (72 h) came out at 107 ± 1.1%.
Compound `C[C@H]1c2cccc(O)c2C(=O)C2=C(O)[C@]3(O)C(=O)C(C(N)=O)=C(O)[C@@H](N(C)C)[C@@H]3[C@@H](O)[C@@H]21` [Doxycycline hydrochloride] registered a growth yield (40 h) of 93.2 ± 1.8% and a growth yield (72 h) of 92.7 ± 2.7%.
The corresponding values for `Clc1ccc(C(Cn2ccnc2)OCc2ccsc2Cl)c(Cl)c1` (centres undefined) [Tioconazole] are 2.22 ± 1.6% and 1.89 ± 0.84%.
Taken in the same sequence, the figures for `CCCC1C(=O)N2C(N(C)C)=Nc3ccc(C)cc3N2C1=O` (centres undefined) [Azapropazone] were 91.5 ± 4.8% and 87.6 ± 4.5%.
For `c1cnc(N2CCN(Cc3ccc4c(c3)OCO4)CC2)nc1` [Piribedil hydrochloride], the growth yield came out at 109 ± 8.3% (40 h) and 102 ± 4% (72 h).
Taken in the same sequence, the figures for `C[C@](N)(Cc1ccc(O)c(O)c1)C(=O)O` [Methyldopa (L,-)] were 101 ± 1.1% and 101 ± 1.5%.
Compound `CCOC(=O)O[C@]1(C(=O)OCCl)CC[C@H]2[C@@H]3CCC4=CC(=O)C=C[C@]4(C)[C@H]3[C@@H](O)C[C@@]21C` [Loteprednol etabonate] had a growth yield (40 h) of 97.7 ± 3.6% and a growth yield (72 h) of 97.4 ± 3.5%.
The corresponding values for `Cc1ccc(NC(=O)c2ccc(CN3CCN(C)CC3)cc2)cc1Nc1nccc(-c2cccnc2)n1` [Imatinib] are 117 ± 7% and 109 ± 7.5%.
As to `O=C(O)c1cn(C2CC2)c2cc(N3CCNCC3)c(F)cc2c1=O` [Ciprofloxacin hydrochloride monohydrate], the growth yield came out at 94.19 ± 0.48% (40 h) and 92.4 ± 0.32% (72 h).
Taken in the same sequence, the figures for `CCOc1nc2cccc(C(=O)OCc3oc(=O)oc3C)c2n1Cc1ccc(-c2ccccc2-c2noc(=O)[nH]2)cc1` [Azilsartan kamedoxomil] were 101 ± 3.5% and 99.7 ± 3.7%.
Regarding `C#CCN[C@@H]1CCc2ccccc21` [Rasagiline], the growth yield was determined as 90.06 ± 0.48% (40 h) and 91.03 ± 0.42% (72 h).
